# Test results taken from PubChem BioAssay AID2546 (National Center for Advancing Translational Sciences (NCATS), 2010).
# The campaign covered roughly 310,000 compounds. About 11,000 (3.5%) were called active. The shares of active, inactive and inconclusive entries below differ from those in the screen. The call rests on the fitted dose curve; in most records, active means well fitted inhibition curve with a large enough effect; inconclusive means small, poorly fitted or top-dose-only effect, or effect the other way; inactive means flat fitted curve, though single readings scatter. No potency is given beside an inconclusive call; the fits are too rough.
# Assay: VP16 counterscreen qHTS for inhibitors of ROR gamma transcriptional activity;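 further: Gal4-VP16 expression switched on by copper sulfate through the metallothionein promoter; nearly all actives have a fitted effect of over 50% in size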
# Conditions: Drosophila S2 Gal4-VP16 UAS-luciferase, luminescence, 20 h; activity, negative = inhibition: at 53.6 µM (top of the series)
# On the % scale 0 is the no-effect control and ±100 the full control effect; potency means the concentration at half of the fitted maximal effect; tags describe the fitted curve by direction and shape.
Compound,Potency,"activity, negative = inhibition"
N#CC1=C(S)N(c2ccccc2)C(c2ccc(-c3cc(Cl)ccc3Cl)o2)NC1=O (centres undefined),"inconclusive [inhibitor, single point]",–
COc1ccccc1OCCn1cc(C(=O)c2ccco2)c2ccccc21,"inconclusive [inhibitor, single point]",–
COc1ccc(Cl)cc1NC(=O)CNCc1cccs1,–,inactive: -8%
O=C1/C(=C\c2cccnc2)CN(Cc2ccccc2)C/C1=C\c1cccnc1,active: 2 µM,–
O=[N+]([O-])c1ccc(NC(=S)N2CCN(S(=O)(=O)c3ccccc3)CC2)cc1,–,inactive: -4.94%
COc1ccc(NS(=O)(=O)c2cccc(C(=O)NC3CCN(Cc4ccccc4)CC3)c2)cc1,–,inactive: -10.2%
CCCC[C@@H]1CNC(=S)N1CCCc1cc(OC)c(OC)c(OC)c1,"inconclusive [inhibitor, single point]",–
Brc1ccc2c(c1)CN1CCCC1=N2,–,inactive: -16.8%
CC(C)CC(=O)NC(=S)Nc1ccc(CN2CCOCC2)cc1,–,inactive: 11.2%
CC(=O)Nc1ccc(OC(=O)c2ccccc2OC(C)=O)cc1,"inconclusive [activator, single point]",–
Cc1ccc(C2=NN(S(=O)(=O)c3ccccc3)C(c3ccccc3O)C2)cc1 (centres undefined),"inconclusive [inhibitor, single point]",–
Cc1ccc(N/C=C/C(=O)c2ccccc2)cc1C,–,inactive: -55.9%
COCCn1c(C)cc(C(=O)CSc2nc3ccccc3o2)c1C,"inconclusive [inhibitor, single point]",–
COC(=O)Cc1c(C)c2ccc(OCC(=O)N3CCCC3)c(C)c2oc1=O,–,inactive: -4.26%
O=c1[nH]c(/C=C/c2ccccc2OC(F)F)nc2c1cnn2-c1ccccc1,"inconclusive [inhibitor, single point]",–
Fc1ccc(-c2csc3ncnc(Cl)c23)cc1,"inconclusive [inhibitor, partial curve]",–
Cc1c(C(=O)NN2CCCCC2)nn(-c2ccc(Cl)cc2Cl)c1-c1ccc(I)cc1,inactive,–
COc1ccc(-c2nnc(OCc3ccccc3)c3ccccc23)cc1,"inconclusive [inhibitor, single point]",–
CCOc1ccc(-n2nc(C(=O)NC3CCCCC3)c3ccccc3c2=O)cc1,"inconclusive [inhibitor, full curve, poor fit]",–
CCCCc1c(C)nn(-c2nnc3c4ccccc4n(CC)c3n2)c1C,active: 3.98 µM,–
Cc1ccc(CCc2nnc(SCC(=O)Nc3cccc(Cl)c3)n2-c2ccccc2)o1,"inconclusive [inhibitor, partial curve]",–
Cc1cccc(N(CC(=O)Nc2ccccc2-c2ccccc2)S(=O)(=O)c2ccccc2)c1C,"inconclusive [inhibitor, full curve, poor fit]",–
O=C1c2ccccc2C2=Nc3ccccc3SC(c3cccc(F)c3)C12 (centres undefined),–,inactive: -9.67%
Fc1ccc(NC(=S)NCc2ccccc2Cl)cc1,active: 14.1 µM,–
N#Cc1cccc(-c2cc(-n3ccnc3)ncn2)c1,–,inactive: 4.92%

Compound,Potency,"activity, negative = inhibition"
O=C1N/C(=N/NC(=O)c2cccc3ccccc23)S/C1=C\c1ccccc1OCc1ccccc1,"inconclusive [inhibitor, single point]",–
CCC(=O)Nc1nnc(Cc2ccccc2)s1,"inconclusive [inhibitor, partial curve, poor fit]",–
COc1ccc(/C=C2/N=C3CCCCCN3C2=O)cc1OC,"inconclusive [activator, partial curve]",–
CN1CCN(C(=O)C2=C[C@@H](c3ccc4c(c3)OCO4)C[C@@H](OCc3ccc(CO)cc3)O2)CC1,–,inactive: -0.68%
O=C(COc1ccccc1)Nc1nnc(-c2ccc(Cl)s2)o1,active: 20 µM,–
Cc1cccc(N=C2NN=C(c3ccc4c(c3)OCCO4)CS2)c1,"inconclusive [inhibitor, single point]",–
CN1/C(=C/C(=S)NC(=O)C2CCC2)C(C)(C)c2ccccc21,active: 12.6 µM,–
CCOC(=O)c1c(C)[nH]c(C(=O)NNC(=O)c2ccccc2)c1C,"inconclusive [inhibitor, single point]",–
COC(=O)c1cnn(-c2ccc(Cl)cc2)c1/C=N/NC(N)=S,"inconclusive [inhibitor, single point]",–
S=C(Nc1ccccc1)N1CCc2ccccc21,active: 15.8 µM,–
Cc1ccc(OCCSCc2nc3ccccc3[nH]2)cc1,"inconclusive [inhibitor, single point]",–
CCOC(=O)c1ccc(NC(=O)c2nc[nH]c2C(=O)N2CCN(c3ccccc3)CC2)cc1,"inconclusive [inhibitor, single point]",–
CCOc1cc2[nH]c(=O)n(Cc3cccc(OC)c3)c(=O)c2cc1OCC,"inconclusive [inhibitor, single point]",–
O=C(CCN1C(=O)C2C3CC(C(Br)C3Br)C2C1=O)OCC(=O)c1ccccc1 (centres undefined),–,inactive: -13.8%
CC(=O)Nc1ccccc1OCC(=O)c1cc(C)n(Cc2cccs2)c1C,active: 1.26 µM,–
Clc1ccc2c(N/N=C/c3cccc(Br)c3)ccnc2c1,"inconclusive [inhibitor, single point]",–
COC(=O)c1sc(NC(=O)CSc2nnnn2-c2cccc(OC)c2)nc1C,"inconclusive [inhibitor, single point]",–
Cc1ccc(NC(=S)N(Cc2cccs2)Cc2cc3cc(C)ccc3[nH]c2=O)cc1,"inconclusive [activator, single point]",–
COc1ccc(-n2c(Cc3cccn3C)nnc2SCC(=O)N2CCC(C)CC2)cc1,"inconclusive [inhibitor, single point]",–
c1ccc(Cn2nnnc2C(c2cccnc2)N2CCN(c3ccccc3)CC2)cc1 (centres undefined),"inconclusive [inhibitor, single point]",–
CN1CCN(CCCNC(=O)c2ccc(/C=C3\Oc4ccccc4N(Cc4ccc(Cl)cc4)C3=O)cc2)CC1,active: 11.2 µM,–
C#CCNc1nc(CC)nc2c1nnn2Cc1ccccc1F,–,inactive: -0.487%
Cc1sc(NC(=O)CN2CCOCC2)c(C#N)c1C,–,inactive: -0.316%
CCCCc1ccc(NC(=S)N2CCN(c3ccccn3)CC2)cc1,"inconclusive [inhibitor, single point]",–
Cc1cccc2c(=O)cc(C(F)(F)F)[nH]c12,"inconclusive [inhibitor, single point]",–

Compound,Potency,"activity, negative = inhibition"
CC(=O)OC[C@@H]1O[C@H](CCO/N=C(\C)CCN2CCCc3nc(C)c(C)cc32)C=C[C@@H]1OC(C)=O,–,inactive: 5.1% [at 10 µM]
COc1ccc(NC(=S)NC2CCCC2)c(OC)c1,"inconclusive [inhibitor, single point]",–
Cc1[nH]n(-c2ccccc2)c(=S)c1C=Nc1ccc([N+](=O)[O-])cc1,active: 7.08 µM,–
O=C(NC(=S)NNC(=O)c1ccccc1[N+](=O)[O-])c1ccccc1,active: 3.16 µM,–
COC(=O)[C@H](CCSC)NC(=O)Nc1ccc(S(N)(=O)=O)cc1,–,inactive: -5.09%
CC(C)=CCC1=C(O)[C@](O)(CC=C(C)C)C(=O)C(C(=O)CC(C)C)=C1O,"inconclusive [inhibitor, single point]",–
O=C(Nc1cccc(-c2cccc(F)c2)c1)C1CCN(C2CCOCC2)CC1,–,inactive: 0.845%
COc1ccc(CSCC(=O)N/N=C/c2ccccc2O)cc1,active: 3.16 µM,–
CC(C)c1ccc(CC(NC(=O)c2ccccc2)C(=O)NCC(=O)O)cc1 (centres undefined),–,inactive: -0.392%
Cc1cccc(NC(=S)NNC(=O)c2ccc3c(c2)OCO3)c1,"inconclusive [inhibitor, partial curve, poor fit]",–
N#Cc1ccccc1Sc1ccccc1C(=O)OCC(=O)NC12CC3CC(CC(C3)C1)C2,"inconclusive [inhibitor, single point]",–
O=C(Nc1ccc(Cc2ccncc2)cc1)c1cccc([N+](=O)[O-])c1,"inconclusive [inhibitor, single point]",–
C=CCn1c2ccccc2c(=O)c2cc(C#CC3(O)CCCCC3)ccc21,"inconclusive [inhibitor, single point]",–
CCN1CCN(c2cc(C)c3cc(NC(=S)N4CCN(c5ccccc5F)CC4)ccc3n2)CC1,"inconclusive [inhibitor, single point]",–
Cc1cc(C(=O)N/N=C/c2cc([N+](=O)[O-])ccc2O)c2ccccc2n1,active: 4.47 µM,–
COc1ccc(C(=O)CSc2nnc(Cn3nnc4ccccc43)n2C)cc1,"inconclusive [inhibitor, single point]",–
CC(C)(C)C1CCC(C(=O)Nc2nccs2)CC1 (centres undefined),active: 8.91 µM,–
COc1ccccc1NC(=S)N(Cc1ccco1)Cc1cc2ccc(C)c(C)c2[nH]c1=O,"inconclusive [inhibitor, single point]",–
COc1ccc(CN2CCNC(=O)C2CC(=O)N(C)CC2CCOCC2)c(F)c1 (centres undefined),–,inactive: -4.61%
Cc1cc(NCCN2CCOCC2)n2ncc(-c3ccccc3)c2n1,active: 10 µM,–
CCOc1ccc(CCNC(=O)CCOc2cc(C)ccc2C)cc1OCC,–,inactive: 5.14%
Cc1ccc(N=C2NC(=O)/C(=C\c3ccsc3)S2)c(C)c1,"inconclusive [inhibitor, single point]",–
CN=C(Nc1cc(Cl)ccc1Cl)SC1CC(=O)N(c2ccc(C(=O)OC)cc2)C1=O (centres undefined),"inconclusive [inhibitor, single point]",–
CC1(C)CC(=O)c2cc(N=C/C(C(=O)c3ccccc3)=C(\O)c3ccccc3)c(=O)oc2C1,"inconclusive [activator, single point]",–
